# Source: the supplement of paper PMC12217912
# The list shows a part of the results. The full chains were built here from the parent and the listed change. Values near 0.05 are background.
# B1: TEV protease; numbered along this chain (parent)
# chain: MGESLFKGPRDYNPISSSICHLTNESDGHTTSLYGIGFGPFIITNKHLFRRNNGTLVVQSLHGVFKVKDTTTLQQHLVDGRDMIIIRMPKDFPPFPQKLKFREPQREERICLVTTNFQTKSMSSMVSDTSCTFPSGDGIFWKHWIQTKDGQCGSPLVSTRDGFIVGIHSASNFTNTNNYFTSVPKNFMELLTNQEAQQWVSGWRLNADSVLWGGHKVFMVKPEEPFQPVKEATQL
# Variants of: B1
# Assay: raw area under fraction-flipped curve 0-4 h after induction (AUC4h, not background-subtracted), DNA-recorder readout of cleavage of the substrate (dimensionless); higher = more cleavage of the substrate by the protease variant
# Details: temperature: 34 °C; time window: 0-4 h after rhamnose induction
# 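Further: Bxb1 expression induced with 0.2% (w/v) L-rhamnose at OD600 near 0.5, cultures sampled hourly, flipped fraction per protease–substrate barcode pair counted by paired-end Illumina sequencing.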
Variant,area with substrate ENLYHQS,area with substrate ENLYIQS,area with substrate ENLYKQS,area with substrate ENLYMQS,area with substrate ENLYPQS,area with substrate ENLYQQS,area with substrate ENLYWQS,area with substrate ENLYSQS,area with substrate ENLYVQS,area with substrate ENLYRQS
MGESLFKGPRDYNPISSSICHLTNESDGHTTSLYGIGFGPFIITNKHLFRRNNGTLVVQSLHGVFKVKDTTTLQQHLVQGRDMIIIRMPKDFPPFPQKLKFREPQREERICLVTTNFQTKSMSSMVSDTSCTFPSGDGIFWKHWIQTKDGQCGSPLVSTRDGFIVGIHSASNFTNTNNYFTSVPKNFMELLTNQEAQQWVSGWRLNADSVLWGGHKVFMVKPEEPFQPVKEATQL [D79Q],0.0661,0.114,0.0043,0.1,0.0678,0.0387,0.075,,,
MTESLFKGPRDYNPISSSICHLTNESDGHTTSLYGIGFGPFIITNKHLFRRNNGTLVVQSLHGVFKVKDTTTLQQHLVDGRDMIIIRMPKDFPPFPQKLKFREPQREERICLVTTNFQTKSMSSMVSDTSCTFPSGDGIFWKHWIQTKDGQCGSPLVSTRDGFIVGIHSASNFTNTNNYFTSVPKNFMELLTNQEAQQWVSGWRLNADSVLWGGHKVFMVKPEEPFQPVKEATQL [G2T],0.0753,,0.0604,,,,,0.0884,0.065,
MGESLFKGPRDYNPISSSICHLTNESDGHTTSLYGIGFGPFIITNKHLFRRNNGTLVVQSLHGVFKVKDTTTLQQHLVDGRDMIICRMPKDFPPFPQKLKFREPQREERICLVTTNFQTKSMSSMVSDTSCTFPSGDGIFWKHWIQTKDGQCGSPLVSTRDGFIVGIHSASNFTNTNNYFTSVPKNFMELLTNQEAQQWVSGWRLNADSVLWGGHKVFMVKPEEPFQPVKEATQL [I86C],0.07,0.101,,0.0759,0.086,,,,,0.0578
MGESLFKGPRDYNPISSSICHLTNESDGHTTSLYGIGFGPFIITNKHLFRRNNGTLVVQSLHGVFKVKDTTTLQQHLVDGRDMIIIRMPKDFPPFPQKLKFREPQREERICLVTTNFQTKSMSSMVSDTSCTFPSGDGIFWKHWIQTKDGQCGSPLVSTRDGFIVGIHSKSNFTNTNNYFTSVPKNFMELLTNQEAQQWVSGWRLNADSVLWGGHKVFMVKPEEPFQPVKEATQL [A170K],0.0631,,,0.0762,,,0.0447,,,
MGESLFKGPRDYNPISSSICHLTNESDGHTTSLYGIGFGPFIITNKHLFRRNNGTLVVQSLHGVFKVKDTTTLQQHLVDGRDMIIIRMPKDFPPFPQKLKFREPQREERICLVTTNFQTKSMSSMVSDTSCTFPSGDGIFWKHWIQTKDGQCGSPLVSTRDGFIVGIHSRSNFTNTNNYFTSVPKNFMELLTNQEAQQWVSGWRLNADSVLWGGHKVFMVKPEEPFQPVKEATQL [A170R],0.0183,0.038,,,,,,,,
MGESLFKGPRDYNPISSSICHLTNESDGHTTSLYGIGFGPFIITNKHLFRRNNGTLVVQSLHGVFKVKDTTTLQQHLVDGRDMIIIRMPKDGPPFPQKLKFREPQREERICLVTTNFQTKSMSSMVSDTSCTFPSGDGIFWKHWIQTKDGQCGSPLVSTRDGFIVGIHSASNFTNTNNYFTSVPKNFMELLTNQEAQQWVSGWRLNADSVLWGGHKVFMVKPEEPFQPVKEATQL [F92G],0.0516,,,,,,,,,
MGESLFKGPRDYNPISSSICHLTNESDGHTTSLYGIGFGPFIITNKHLFRRNNGTLVVQSLHGVFKVKDTTTLQQHLVDGRDMIIIRMPKDFPPFPQKLKFREPQREERICLVTTNFQTKSMSSMVSDTSCTFPSGDGIFWKHWIQTKDGQCGSPLVSTRDGFIVGIHSASNFTNTNNYFCSVPKNFMELLTNQEAQQWVSGWRLNADSVLWGGHKVFMVKPEEPFQPVKEATQL [T181C],0.0977,,,,,,,,0.121,
MGESLFKGPRDYNPISSSICHLTNESDGHTTSLYGIGFGPFIITNKHLFRRNNGTLVVQSLHGVFKVKDTTTLQQHLVDGRDMIIIRMPKDFPPFPQKLKFREPQREERICLVTTNFQTKSMSSMVSDTSCTFPSGDGIFWKHWIQTKDGQCGSPLVSTRDGFIVGIHSASNFTNTNNYFTSVPKNFMELLTNQEARQWVSGWRLNADSVLWGGHKVFMVKPEEPFQPVKEATQL [Q197R],0.067,0.114,,,0.0708,,0.0525,0.0566,,
MGESLFKGPRDYNPISSSICHLTNESDGHTTSLYGIGFGPFIITNKHLFRRNNGTLVVQSLHGVFKVKDTTTLQQHLVDGRDMIIIRMPKDFPPFPQKLKFREPQREERICLVTTNFQTKSMSSMVSDTSCTFPSGDGIFWKHWIQTKDGQCGSPLVSTRDGFIVGIHSASNFTNTNNYFTSVPKNFMELLTNIEAQQWVSGWRLNADSVLWGGHKVFMVKPEEPFQPVKEATQL [Q194I],0.0687,0.15,,0.0709,0.0682,,,,,0.0515
MGESLFKGPRDYNPISSSICHLTNESDGHTTSLYGIGFGPFIITNKHLFRRNNGTLVVQSLHGVFKVKDTTTLQQHLVDGRDMIIIRMPKDFPPFPQKLKFREPQREERICLVTTNFQTKSMSSMVSDTSCTFPSGDGIFWKHWIQTKDGQCGSPLVSTRDGFIVGIHSASNFTNTNNYFTVVPKNFMELLTNQEAQQWVSGWRLNADSVLWGGHKVFMVKPEEPFQPVKEATQL [S182V],0.0707,,0.0416,,,,0.0789,,,
MGESLFKGPRDYNPISSSICHLTNESDGHTTSLYGIGFGPFIITNKHLFRRNNGTLVVQSLHGVFKVKDTTTLQQHLVDGRDMIIIRMPKDFPPFPQKLKFREPQREERICLVTTNFQTKSMSSMVSDTSCTFPSGDGIFWKHWIQTKDGQCGSPLVSTRDGFIVGIHSASNFTNTNNYFTSVPKNFMELLTNQEAQQWVSGWPLNADSVLWGGHKVFMVKPEEPFQPVKEATQL [R204P],0.0592,,0.0334,,0.0583,,0.0607,,,0.0339
MGESLFKGPRDYNPISSSICHLTNESDGHTTSLYGIGFGPFIITNKHLFRRNNGTLVVQSLHGVFKVKDTTTLQQHLVDGRDMIIIRMPKDFPPFPQKLKFREPQREERICLVTTNFQTKSMSSMVSDTSCTFPSGDGIFWKHWIQTKDGQCGSPLVSTRDGFIVKIHSASNFTNTNNYFTSVPKNFMELLTNQEAQQWVSGWRLNADSVLWGGHKVFMVKPEEPFQPVKEATQL [G166K],0.0436,,,,,,,,0.0592,0.0548

# Same assay, conditions: temperature: 34 °C; time window: 0-4 h after rhamnose induction
Variant,area with substrate ENLYNQS,area with substrate ENLYLQS,area with substrate ENLYTQS
MGESLFKGPRDYNPISSSICHLTNESDGHTTSLYGIGFGPFIITNKHLFRRNNGTLVVQSLHGVFKVKDTTTLQQHLVDGRDMIIIRMPKDFPPFPQKLKFREPQREERICLVTTNFQTKSMSSMVSDTSCTFPSGDGIFWKHWIQTKDGQCGSPLVSTRDGFIVGIHSKSNFTNTNNYFTSVPKNFMELLTNQEAQQWVSGWRLNADSVLWGGHKVFMVKPEEPFQPVKEATQL [A170K],0.0645,,
MGESLFKGPRDYNPISSSICHLTNESDGHTTSLYGIGFGPFIITNKHLFRRNNGTLVVQSLHGVFKVKDTTTLQQHLVDGRDMIIIRMPKDGPPFPQKLKFREPQREERICLVTTNFQTKSMSSMVSDTSCTFPSGDGIFWKHWIQTKDGQCGSPLVSTRDGFIVGIHSASNFTNTNNYFTSVPKNFMELLTNQEAQQWVSGWRLNADSVLWGGHKVFMVKPEEPFQPVKEATQL [F92G],,0.0463,
MGESLFKGPRDYNPISSSICHLTNESDGHTTSLYGIGFGPFIITNKHLFRRNNGTLVVQSLHGVFKVKDTTTLQQHLVDGRDMIIIRMPKDFPPFPQKLKFREPQREERICLVTTNFQTKSMSSMVSDTSCTFPSGDGIFWKHWIQTKDGQCGSPLVSTRDGFIVGIHSASNFTNTNNYFTSVPKNFMELLTNQEARQWVSGWRLNADSVLWGGHKVFMVKPEEPFQPVKEATQL [Q197R],0.0695,,0.0698
MGESLFKGPRDYNPISSSICHLTNESDGHTTSLYGIGFGPFIITNKHLFRRNNGTLVVQSLHGVFKVKDTTTLQQHLVDGRDMIIIRMPKDFPPFPQKLKFREPQREERICLVTTNFQTKSMSSMVSDTSCTFPSGDGIFWKHWIQTKDGQCGSPLVSTRDGFIVGIHSASNFTNTNNYFTSVPKNFMELLTNQEAQQWVSGWPLNADSVLWGGHKVFMVKPEEPFQPVKEATQL [R204P],0.0652,0.0623,
